# Data: a collection of fitness landscapes (doi:10.1016/j.celrep.2020.107928)
# Over roughly 81,000 sequences, “one-hybrid fitness for binding parS DNA” has its median near -0.17; the highest 2% begin near 0.51. This is one part of the list.
# B1: Caulobacter ParB omega fusion; a variant is named by its letters at X, in order, B8GW30 (parent)
# chain: MESVVVGEPGMSEGRRGLGRGLSALLGEVDAAPAQAPGEQLGGSREAPIEILQRNPDQPRRTFREEDLEDLSNSIREKGVLQPILVRPSPDTAGEYQIVAGERAWRAAQRAGLKTVPIMVRELDDLAVLEIGIIENVQRADLNVLEEALSYKVLMEKFERTQENIAQTIGKSXSHVANXMRLLXLPDEVQSYLVSGELTAXHARAIAAAADPVALAKQIIEGGLSVRETEALARKAPNLSAGKSKGGRPPRVKDTDTQALESDLSSVLGLDVSIDHRGSTGTLTITYATLEQLDDLCNRLTRGI
# Variants of: B1
# Assay: one-hybrid fitness for binding parS DNA (scaled: cognate 1, non-cognate 0); higher = stronger binding
# Conditions: with parS DNA site
# Summary of the method: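 Pre- and post-selection plasmids were Illumina-sequenced, three replicate libraries were pooled, and any variant with under 10 reads was removed. The libraries were Caulobacter ParB with four specificity codons randomised, selected in E. coli USO through a HIS3 reporter whose site is 19 bp from the promoter. Cells grew 48 hours at 37°C on M9 without histidine, with 0.1 mM IPTG and 5 mM 3-AT. Fitness is the log change in variant-to-wild-type read ratio, rescaled against cognate and non-cognate.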
row,Variant,one-hybrid fitness for binding parS DNA
1,RNQL,≤ 0.2
2,PLYS,≤ 0.2
3,YRGG,0.202
4,PYNS,≤ 0.2
5,QNAV,≤ 0.2
6,TKTI,≤ 0.2
7,MAGG,≤ 0.2
8,VKGA,≤ 0.2
9,VRQQ,≤ 0.2
10,QVGM,≤ 0.2
11,MNAI,≤ 0.2
12,SRFP,≤ 0.2
13,YNSS,≤ 0.2
14,YRLQ,≤ 0.2
15,MYYL,≤ 0.2
16,NNSG,≤ 0.2
17,DRQQ,≤ 0.2
18,ATHE,≤ 0.2
19,MFYS,≤ 0.2
20,NDAG,≤ 0.2
21,TMHG,≤ 0.2
22,SGQP,≤ 0.2
23,ARLH,≤ 0.2
24,PHLR,≤ 0.2
25,CMLA,≤ 0.2
26,PGGY,≤ 0.2

row,Variant,one-hybrid fitness for binding parS DNA
1,EAPC,≤ 0.2
2,SKDF,≤ 0.2
3,RYSI,≤ 0.2
4,DCIR,≤ 0.2
5,QVAV,≤ 0.2
6,SPLH,≤ 0.2
7,IKRW,≤ 0.2
8,VDSS,≤ 0.2
9,GVHR,≤ 0.2
10,SDAW,≤ 0.2
11,FSHN,≤ 0.2
12,LNGR,≤ 0.2
13,DPYR,≤ 0.2
14,LYTS,≤ 0.2
15,YHHC,≤ 0.2
16,NVRC,≤ 0.2
17,GLCE,≤ 0.2
18,VVRK,≤ 0.2
19,WLKM,≤ 0.2
20,AMCS,≤ 0.2
21,RHWD,≤ 0.2
22,RAIV,≤ 0.2
23,CMCR,≤ 0.2
24,IVLA,≤ 0.2
25,QTSI,≤ 0.2
26,VSEE,≤ 0.2

row,Variant,one-hybrid fitness for binding parS DNA
1,VELG,≤ 0.2
2,NALH,≤ 0.2
3,RHFT,0.707
4,KMYL,≤ 0.2
5,GQLV,≤ 0.2
6,QEKC,≤ 0.2
7,SDCR,≤ 0.2
8,PTTF,≤ 0.2
9,VRHV,≤ 0.2
10,AHQN,≤ 0.2
11,VLVF,≤ 0.2
12,STWI,≤ 0.2
13,FTSG,≤ 0.2
14,RSKT,0.796
15,LAPW,≤ 0.2
16,VGEL,≤ 0.2
17,QVFA,≤ 0.2
18,HFNG,≤ 0.2
19,YRSV,≤ 0.2
20,GYFR,≤ 0.2
21,EKTY,≤ 0.2
22,SNAM,≤ 0.2
23,LFSD,≤ 0.2
24,NYNH,≤ 0.2
25,SEHM,≤ 0.2
26,SHQR,≤ 0.2

row,Variant,one-hybrid fitness for binding parS DNA
1,DAAK,≤ 0.2
2,YERT,≤ 0.2
3,MRMA,≤ 0.2
4,PKSR,≤ 0.2
5,NFMF,≤ 0.2
6,VDCW,≤ 0.2
7,GTMG,≤ 0.2
8,HHRK,≤ 0.2
9,GMVC,≤ 0.2
10,TEFL,≤ 0.2
11,DMSG,≤ 0.2
12,QTKR,0.252
13,GRVR,≤ 0.2
14,NYPS,≤ 0.2
15,SHQC,≤ 0.2
16,SGHS,≤ 0.2
17,HVWR,≤ 0.2
18,QPTM,≤ 0.2
19,HALP,≤ 0.2
20,ELCI,≤ 0.2
21,RCGL,≤ 0.2
22,WMPT,≤ 0.2
23,ASIH,≤ 0.2
24,VLDR,≤ 0.2
25,TVGL,≤ 0.2
26,NVQT,≤ 0.2

row,Variant,one-hybrid fitness for binding parS DNA
1,MRHE,≤ 0.2
2,CVIC,≤ 0.2
3,VWSI,≤ 0.2
4,QEKG,≤ 0.2
5,ILYS,≤ 0.2
6,LVVC,≤ 0.2
7,CHRC,≤ 0.2
8,TLNF,≤ 0.2
9,VYTI,≤ 0.2
10,QPWI,≤ 0.2
11,DSHR,≤ 0.2
12,RCMA,0.609
13,HAPQ,≤ 0.2
14,NKTK,≤ 0.2
15,KARL,≤ 0.2
16,GHLR,≤ 0.2
17,EMRC,≤ 0.2
18,HMAG,≤ 0.2
19,RQAE,≤ 0.2
20,GKNG,≤ 0.2
21,RFLP,≤ 0.2
22,CMMP,≤ 0.2
23,MWAS,≤ 0.2
24,TTIW,≤ 0.2
25,YRAH,≤ 0.2
26,HDHL,≤ 0.2

row,Variant,one-hybrid fitness for binding parS DNA
1,PGAS,≤ 0.2
2,QSSR,≤ 0.2
3,QYFV,≤ 0.2
4,LQPT,≤ 0.2
5,DSNT,≤ 0.2
6,LQLL,≤ 0.2
7,TKAR,≤ 0.2
8,HSPL,≤ 0.2
9,EAWY,≤ 0.2
10,RMWW,0.227
11,NPTW,≤ 0.2
12,MDTN,≤ 0.2
13,SNMR,≤ 0.2
14,NAKW,≤ 0.2
15,DIPG,≤ 0.2
16,IRCL,≤ 0.2
17,VRPK,≤ 0.2
18,QSWM,≤ 0.2
19,APST,≤ 0.2
20,RSHE,≤ 0.2
21,LIKS,≤ 0.2
22,APRP,≤ 0.2
23,NQFS,≤ 0.2
